# The other results are listed elsewhere or left out. The full chains were built here from the parent and the listed change. Inactive controls read about 0.05.
# B1: TEV protease; numbered along this chain (parent)
# chain: MGESLFKGPRDYNPISSSICHLTNESDGHTTSLYGIGFGPFIITNKHLFRRNNGTLVVQSLHGVFKVKDTTTLQQHLVDGRDMIIIRMPKDFPPFPQKLKFREPQREERICLVTTNFQTKSMSSMVSDTSCTFPSGDGIFWKHWIQTKDGQCGSPLVSTRDGFIVGIHSASNFTNTNNYFTSVPKNFMELLTNQEAQQWVSGWRLNADSVLWGGHKVFMVKPEEPFQPVKEATQL
# Variants of: B1
# Test: raw area under fraction-flipped curve 0-4 h after induction (AUC4h, not background-subtracted), DNA-recorder readout of cleavage of the substrate (dimensionless); higher = more cleavage of the substrate by the protease variant
# Settings: temperature: 34 °C; time window: 0-4 h after rhamnose induction
# 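Note: Bxb1 expression induced with 0.2% (w/v) L-rhamnose at OD600 near 0.5, cultures sampled hourly, flipped fraction per protease–substrate barcode pair counted by paired-end Illumina sequencing.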
Variant,area with substrate ENLEFQS,area with substrate ENLKFQS,area with substrate ENLNFQS,area with substrate ENLRFQS,area with substrate ENLSFQS,area with substrate ENLVFQS,area with substrate ENLFFQS,area with substrate ENLHFQS,area with substrate ENLIFQS,area with substrate ENLLFQS
D208A,0.0758,0.0932,0.0508,0.0593,0.0557,0.0508,–,–,–,–
L61I,0.0614,–,0.0715,0.117,–,–,0.0721,0.0909,0.0938,0.0788
R109M,–,–,–,–,0.0703,–,0.113,–,0.0887,–
F187V,–,0.0519,–,0.0516,0.0609,–,0.0901,0.0628,0.0826,0.0561
I145A,0.0572,–,0.0794,0.0934,–,–,0.0926,–,–,–
S130A,0.0662,0.0529,0.0642,0.0606,0.0499,–,0.0696,0.0696,–,–
F95Q,–,0.0687,–,–,–,–,–,–,–,0.0641
F101A,0.0568,0.0575,0.0581,–,0.0524,0.0531,0.0546,–,0.0626,–
N193H,0.0567,0.07,0.064,–,0.0594,0.074,0.0801,0.0521,0.118,0.0595
V210A,–,0.0615,–,0.0753,0.0534,–,0.0797,–,–,0.0708
T114S,0.0828,0.073,0.0731,–,0.092,0.0508,0.102,0.069,0.0891,0.0776
L73A,0.0916,0.0734,0.0627,0.0469,0.0396,–,0.0624,0.0651,–,–
L73M,–,0.0819,–,0.0588,–,0.0562,0.0645,0.0642,0.0826,0.0666
S158T,–,0.0519,–,–,–,–,–,–,–,–
P225Y,–,0.0659,0.0752,–,0.0687,–,0.0947,0.0582,0.0824,0.0597
F180Y,–,0.0752,0.0659,–,–,0.0855,0.0864,0.0682,–,0.0699
M188H,0.0749,0.0823,0.0822,–,0.08,0.0706,0.0689,0.112,–,–
G35F,0.0578,–,–,–,–,–,0.0393,–,0.0455,–

Variant,area with substrate ENLEFQS,area with substrate ENLKFQS,area with substrate ENLNFQS,area with substrate ENLRFQS,area with substrate ENLSFQS,area with substrate ENLVFQS,area with substrate ENLFFQS,area with substrate ENLHFQS,area with substrate ENLIFQS,area with substrate ENLLFQS
G35Y,0.0344,0.0467,–,0.0448,–,–,–,–,–,–
G213E,–,–,–,0.0616,–,–,–,0.0592,–,–
G213P,–,–,0.0665,–,–,–,–,0.0383,–,0.0626
G213I,0.0784,0.0628,–,–,–,0.0693,0.0659,0.0469,–,0.0355
G138E,–,0.0565,0.0735,–,0.0723,–,–,–,–,–
D137W,–,0.076,0.0609,0.0764,0.0516,–,0.085,–,–,–
K7F,0.0458,–,–,0.0751,–,–,–,0.06,–,0.115
K216E,–,–,0.0512,–,0.0719,0.0777,0.0825,0.0603,–,–
L33T,0.0675,0.0706,0.051,–,–,–,0.072,0.0739,–,–
A232D,–,0.062,0.0464,0.0788,0.0596,–,0.0862,0.0664,0.0991,–
S201T,0.0552,0.0928,0.0673,0.0782,–,–,–,–,0.0661,0.11
S201F,–,0.0597,–,–,0.073,–,–,–,–,–
S209Q,0.0635,–,0.0739,–,–,–,–,–,0.0964,0.0657
S209T,–,–,0.0601,0.0675,–,–,0.0899,–,0.0978,–
I110A,–,–,–,–,–,–,0.111,–,–,–
T181N,0.0644,–,–,–,0.0402,–,0.0629,–,–,–
L235R,0.0671,–,–,–,–,–,–,–,–,–
I36G,0.0389,0.0556,0.0278,–,–,–,0.0434,–,–,–

# Same assay, conditions: temperature: 34 °C; time window: 0-4 h after rhamnose induction
Variant,area with substrate ENLQFQS,area with substrate ENLMFQS,area with substrate ENLPFQS,area with substrate ENLGFQS,area with substrate ENLWFQS,area with substrate ENLDFQS,area with substrate ENLTFQS
L61I,0.0562,–,–,–,–,–,–
F187V,–,0.0506,0.0642,–,–,–,–
I145A,–,0.0797,0.0574,0.0807,–,–,–
S130A,0.0976,–,0.0529,0.0486,–,–,–
F95Q,–,–,0.0471,–,–,–,–
F101A,0.0581,–,–,0.0613,–,–,–
N193H,–,0.0728,–,–,–,–,–
V210A,0.0555,–,–,–,0.0719,–,–
T114S,–,0.0754,0.0563,–,0.0963,–,–
L73M,0.0637,–,–,–,0.0596,–,–
S158T,–,–,–,0.0653,–,–,–
P225Y,0.076,0.0609,–,–,0.0679,–,–
F180Y,0.0642,–,0.0694,–,–,–,–
M188H,–,0.0862,0.052,0.069,–,–,–
G35F,–,–,–,0.0367,–,–,–
G35Y,–,–,0.03,–,–,–,–
G213E,–,–,–,–,0.0721,–,–
G213P,–,–,0.0567,–,–,0.0696,–
G213I,0.0592,–,0.0573,0.0521,0.0453,–,–
G138E,–,–,0.0452,–,–,–,0.0547
D137W,0.0748,–,0.0818,0.0733,–,–,–
K7F,0.0621,–,–,–,0.0617,–,–
L33T,–,–,0.0536,–,–,–,0.0762
A232D,0.0691,–,–,–,0.0958,0.0515,–
S201T,–,–,0.042,–,0.0946,–,–
S209Q,0.0661,–,0.0555,–,0.0769,0.0492,–
S209T,–,–,–,–,0.0676,–,–
I110A,0.0699,–,–,–,–,–,–
I36G,0.0467,–,0.0414,–,–,–,–

# — the supplement of paper PMC12217912
